The whole screen tested about 52,000 compounds, of which about 1,700 (3.3%) were called active. Rule as the data show it: active = survival mostly below about 52% (no sharp cut-off); inactive = mostly above about 56%. Some of the results follow.

For this assay, the system named is Wild type. The assay is described as follows: S. aureus survival, RN4220 and DeltatarO strains – OD600, teichoic acid synthesis inhibitors, primary screen (AID 463173). The following applies: S. aureus RN4220 wild type/DeltatarO growth, OD600, 18 h, active compounds read low, screened at 18.75 µg/mL (by protocol).
For `CCOC(=O)c1cnn(-c2ccc(OC)cc2)c1C1CCN(C(=O)OC(C)(C)C)CC1`, the survival was inactive: 44%.

For `COC(=O)c1ccc(NC(=O)CCc2c(C)nn(-c3ccc(N4CCCC4)nn3)c2C)cc1`, the survival is inactive: 73%.

Turning to `Cn1nc(C(=O)Nc2cc(F)ccc2F)c2c1-c1ccccc1SC2`, the survival is inactive: 92%.

Consider `CC1CCCCN1c1csc2ccc(F)cc2c1=O` (stereo unspecified), for which the survival was inactive: 72%.

For `COc1ccccc1N1CCN(C(=O)CCc2c(C)nn(-c3ccc(N4CCCC4)nn3)c2C)CC1`, the survival is inactive: 60%.

For `O=C(CN1CCN(Cc2ccccc2)CC1)N1CCCCCC1`, the survival was inactive: 104%.

As for `Cc1cccc(-c2nc(SCc3ccc(Br)cc3)n3[nH]c(=O)cc3n2)c1`, the survival is inactive: 83%.

As to `CCC(C)NC(=O)CSc1nc2ccc(C(C)C)cc2cc1C#N` (stereo unspecified), the survival was inactive: 103%.

In the case of `CSc1nc2sc3c(c2c(=O)n1-c1ccc(C)c(Cl)c1)CCN(C(C)=O)C3`, the survival is inactive: 76%.

Regarding `COC(=O)c1ccc(NC(=O)CSc2nc(=O)n(Cc3ccco3)c3c2CCC3)cc1`, the survival was inactive: 126%.

Turning to `CCOc1ccc(CCNC(=O)c2ccc3c(c2)c(C)c(C)n3C)cc1`, the survival is inactive: 73%.

As for `COC(=O)CSc1nc(-c2ccccc2)cc(C)c1C#N`, the survival is inactive: 104%.

Regarding `COc1cc(C(=O)N(Cc2ccc(C(C)C)cc2)C2CCS(=O)(=O)C2)cc(OC)c1OC` (stereo unspecified), the survival was inactive: 72%.

On to `COc1cccc(CNc2cccc3cccnc23)c1O`, for which the survival was inactive: 108%.

`COc1cc(NC(=O)c2nnn(Cc3ccc(F)cc3)c2N)cc(OC)c1`: the survival is inactive: 74%.

Consider `COc1ccc(-c2cc(C(F)F)n3ncc(C(=O)Nc4cc(C)on4)c3n2)cc1`, for which the survival was inactive: 108%.

Regarding `O=C(CSc1ccc(-c2ccccc2)nn1)N1CCCC1`, the survival was inactive: 103%.

`Cc1ccccc1C(=O)N1CCC(c2nc3ccccc3s2)CC1`: the survival is inactive: 83%.

Turning to `CC(=O)C1=C(OC(=O)C(C)C)c2ccccc2S(=O)(=O)N1Cc1ccccc1`, the survival is inactive: 102%.

As for `O=C(NCCCc1nc2ccccc2n1Cc1ccccc1Cl)C1CCCCC1`, the survival is inactive: 103%.

For `CCC(=O)N1CCc2cc(Br)cc(S(=O)(=O)NCCc3ccc(OC)c(OC)c3)c21`, the survival was inactive: 71%.

As to `CCn1c(SCc2ccccc2)nnc1-c1nonc1NC(C)=O`, the survival was inactive: 106%.

Regarding `N#CCCSCc1ccc(C(=O)O)o1`, the survival is inactive: 107%.

Take `Cc1[nH]n2c(=O)cc(-c3ccccc3Cl)nc2c1-c1ccccc1`: the survival was active: -13%.

As for `CCOC(=O)C1CCCN(C(=O)Cn2ncc3c([nH]c4ccccc43)c2=O)C1` (stereo unspecified), the survival was inactive: 88%.

For the compound `COc1ccc(C(CC(=O)Nc2ccc(F)c(Cl)c2)N2Cc3ccccc3C2=O)cc1OC` (stereo unspecified), the survival is inactive: 63%.

For `COC(=O)CC(=O)CSc1nc(C)cc(C(F)(F)F)c1C#N`, the survival is inactive: 97%.

On to `COc1cc(C(=O)N2CCCN(c3nc4cc(C)ccc4cc3C#N)CC2)cc(OC)c1OC`, for which the survival was inactive: 102%.

Take `Cc1cc(NC(=O)CN2C(=O)C(C)(C)c3ccccc32)ccc1Br`: the survival was inactive: 63%.

With `Cc1cccc(OCC(=O)Nc2ccc(S(N)(=O)=O)cc2)c1C`, the survival is inactive: 110%.

For `CCN(C(=O)CSc1nc2ccccc2n1CC(=O)Nc1cccc(C#N)c1)c1ccccc1`, the survival is inactive: 124%.

Regarding `Cc1ccc(CNC(=O)CC2Oc3ccccc3NC2=O)cc1` (stereo unspecified), the survival is inactive: 77%.

For `O=S1(=O)N=C(N(Cc2ccco2)c2ccc(O)cc2)c2ccccc21`, the survival was inactive: 122%.

With `Cc1ccc(N2CC3=C(C2=O)C(c2ccc(Br)cc2)NC(=O)N3C)cc1` (stereo unspecified), the survival is inactive: 92%.

Turning to `CC(C)c1ccc(NS(=O)(=O)c2ccc3[nH]cc(C(=O)NC4CCCC4)c(=O)c3c2)cc1`, the survival was active: 7%.

With `O=C(Cn1c(=O)oc2cc(S(=O)(=O)N3CCCCCC3)ccc21)Nc1cccc(C(F)(F)F)c1`, the survival was inactive: 77%.

As to `CCn1c(=O)cc(SCC(=O)Nc2ccc(C)c(F)c2)c2ccccc21`, the survival was inactive: 74%.

For `Cc1ccccc1CNC(=O)c1ccc(NC(=O)c2nsc3ccccc23)cc1`, the survival is inactive: 82%.

Turning to `Cc1ccccc1Nc1sc(C(=O)c2ccc3c(c2)OCO3)c(N)c1S(=O)(=O)c1ccccc1`, the survival was inactive: 68%.

Consider `Cc1ccc(-c2nc(C(=O)NCc3ccc(Cl)cc3)c3n2CCCCC3)cc1`, for which the survival is inactive: 70%.

Turning to `O=C1Cc2cc(S(=O)(=O)N3CCN(c4ccccc4)CC3)ccc2N1`, the survival is inactive: 88%.

Take `Cc1cccc(NC(=O)Nc2nnc(N(C)C3CCCCC3)s2)c1C`: the survival was inactive: 117%.

Regarding `CCOc1ccc(N(CC(=O)Nc2ccccc2)S(C)(=O)=O)cc1`, the survival was inactive: 110%.

`CCOc1ccccc1-n1ccnc(NCc2ccc(F)cc2)c1=O`: the survival is inactive: 101%.

Take `CCc1ccccc1N(C)C(=O)c1cn(CC(C)C)c(=O)c2cc(OC)c(OC)cc12`: the survival was inactive: 98%.

As for `Cc1nn(CC(=O)NCc2ccco2)c(=O)c2cc3ccccc3n12`, the survival is inactive: 91%.

Turning to `O=C(CCC(=O)N1Cc2ccccc2Oc2ncccc21)Nc1ccc(Cl)cc1`, the survival was active: 10%.

For the compound `COc1ccc(-c2nn(CC(=O)NC3CCCC3)c3c2cnc2ccc(F)cc23)cc1`, the survival is inactive: 64%.

Take `CC1CCN(S(=O)(=O)c2ccc3c(c2)N(CC(=O)NCc2ccccc2)C(=O)CO3)CC1`: the survival was inactive: 118%.

For the compound `COc1ccc(N2CCN(C(=O)c3cc4c(-c5ccccc5F)nn(C)c4s3)CC2)cc1`, the survival was inactive: 55%.

`COc1ccc(OC)c(NC2=C(c3ccccc3)C(=O)c3ccccc32)c1`: the survival was inactive: 69%.

Regarding `O=C(Cn1ncc2c(=O)oc3ccccc3c21)Nc1cc(F)ccc1F`, the survival was inactive: 76%.

`COC(=O)c1ccc(Cl)cc1NC(=O)N1CC=C(c2c[nH]c3ccccc23)CC1`: the survival was inactive: 76%.

`Cc1cccc(OCCCC(=O)Nc2sc3c(c2C(N)=O)CCC(C)C3)c1` (stereo unspecified): the survival is inactive: 88%.

With `CCN(CC)c1nc(-c2ccc(C(C)(C)C)cc2)nc2ccccc12`, the survival was active: -2%.

Regarding `O=C(CSc1nc2nccnc2c(=O)n1CCc1c[nH]c2ccccc12)Nc1ccccc1F`, the survival is inactive: 63%.

For the compound `Oc1ccccc1Nc1nc(-c2ccccc2)c2cc(Cl)ccc2n1`, the survival was inactive: 103%.

On to `COc1ccc(/C=C(\C#N)c2nc(-c3cc(Cl)ccc3OC)cs2)cc1`, for which the survival is inactive: 116%.

As for `O=C1CS(=O)(=O)C2(C(=O)N(Cc3cccc(F)c3)c3ccccc32)N1c1ccccc1` (stereo unspecified), the survival is inactive: 95%.

In the case of `COc1ccc2c(CNCC(C)c3ccccc3)c(C(=O)O)n(Cc3ccc(F)cc3Cl)c2c1` (stereo unspecified), the survival was inactive: 118%.

Turning to `COc1cc(OC)c(NC(=O)c2c(C)oc3ncn(C)c(=O)c23)cc1Cl`, the survival was inactive: 88%.

With `CCOc1ccc(CCNC(=O)CCc2c(C)nc3c(c(C)nn3-c3ccccc3)c2C)cc1OCC`, the survival was inactive: 80%.

For `CCOc1ccc(NC(=O)c2ccc(NC(=O)CCS(=O)(=O)c3cccs3)cc2)cc1`, the survival was inactive: 95%.

Consider `Cc1ccc(C2CC(=O)N(Cc3ccccc3F)c3c2c(C)nn3-c2nc(C)cc(C)n2)cc1` (stereo unspecified), for which the survival was inactive: 89%.

As for `Cc1ccc(Cc2nc3ccccc3nc2SCC(=O)N2CCc3ccccc32)cc1`, the survival is inactive: 66%.

Consider `CCn1cc(C(=O)N2CCN(c3cccc(Cl)c3)CC2)c(=O)c2cc(S(=O)(=O)N3CCOCC3)ccc21`, for which the survival is inactive: 82%.

Turning to `COc1ccc(NC(=O)Nc2nnc(N3CCCCCC3)s2)cc1`, the survival was inactive: 75%.

Consider `CN(C)CCNC(=O)C1CCN(c2nc3ccccc3[nH]2)CC1`, for which the survival was inactive: 47%.

For the compound `Cc1c(NC(=O)c2cc([N+](=O)[O-])ccc2N2CCOCC2)cccc1-c1nc2ccccc2o1`, the survival is inactive: 69%.

On to `Cc1ccc(NC(=O)c2nc(S(C)(=O)=O)ncc2N(Cc2ccccc2)Cc2ccco2)c(C)c1`, for which the survival was inactive: 78%.

Consider `Cc1ccc(C(=O)Nc2c(-c3ccccc3)nc3ccccn23)cc1C`, for which the survival was inactive: 55%.

As for `Cc1nn(-c2ccc(F)cc2)c(-n2cccc2)c1C(=O)N1CCN(c2ccc(F)cc2)CC1`, the survival was inactive: 69%.

Take `COc1ccc(NC(=O)c2nnn(Cc3ccccc3C)c2N)c(OC)c1`: the survival is inactive: 82%.

On to `O=C(CSc1nc2ccccc2o1)NC1CC1`, for which the survival was inactive: 86%.

Regarding `Cc1ccc(CNC(=O)Cn2c3ncccc3c(=O)n2-c2ccccc2)cc1`, the survival is inactive: 71%.

Turning to `O=C(CSc1ccc(-c2ccccn2)nn1)Nc1ccc(F)c(F)c1`, the survival was inactive: 71%.

With `CC(=O)N1c2nc(C(C)C)nn2C2(CCCCC2)[C@@H]2CCCC[C@@H]21`, the survival is inactive: 84%.

In the case of `CC(C)CN(CCCNC(=O)c1cc(=O)[nH]c2ccc(S(=O)(=O)N3CCCCCC3)cc12)CC(C)C`, the survival is inactive: 68%.

Take `CCNC(=O)c1cc2sccc2n1Cc1ccccc1`: the survival is inactive: 109%.

In the case of `CCOc1cc(S(=O)(=O)NCc2ccc(OC)cc2)c(OCC)cc1-n1cnnn1`, the survival was inactive: 107%.

In the case of `CCOc1ccc2oc(=O)cc(CN3CCN(c4cc(C)ccc4C)CC3)c2c1`, the survival was inactive: 73%.

`CC(=O)Nc1cccc(NC(=O)CN2C(=O)CCSc3ccccc32)c1`: the survival is inactive: 90%.

Take `O=C(Nc1ccc2oc(-c3ccc(O)c(Br)c3)nc2c1)c1cc2ccccc2o1`: the survival is inactive: 72%.

Consider `Cc1cccc(N2CCN(C(=O)c3cccn4c(=O)c5cc(Cl)ccc5nc34)CC2C)c1` (stereo unspecified), for which the survival is inactive: 65%.

Take `Cc1nc2nc(NC(=O)c3ccccc3F)[nH]n2c(=O)c1Cl`: the survival is inactive: 92%.

`O=C(CSc1nnc(-c2cccc(Cl)c2)o1)N1CCc2ccccc21`: the survival was inactive: 79%.

Take `COc1ccc(C2C=C(c3cccc(OC)c3)Nc3c(C(=O)Nc4ccccc4)cnn32)cc1` (stereo unspecified): the survival was inactive: 65%.

Take `CCn1c2c(c(=O)n3ncc(C(=O)Nc4cc(Cl)ccc4C)c13)CN(Cc1ccc(OC)cc1)CC2`: the survival was inactive: 73%.

As for `Cc1ccn2c(Nc3ccc(C(C)C)cc3)c(-c3cccs3)nc2c1`, the survival was inactive: 53%.

Consider `COc1cc(OC)c(NC(=O)C2=C(C)C(=O)OC23CCCCCC3)cc1Cl`, for which the survival was inactive: 74%.

Take `CCC1CN(C(=O)N2CCC(C(=O)N3CCN(c4cccc(C)c4C)CC3)CC2)c2ccccc2O1` (stereo unspecified): the survival is inactive: 87%.
